Laboratory results published in patent publication US20250027930A1, “SMALL MOLECULES FOR REPROGRAMING ANTI-TUMOR IMMUNITY OF T CELLS” (THE SCRIPPS RESEARCH INSTITUTE, priority 2021, published 2025).

Columns and labels:
OT-I splenocytes = experiment: OT-I splenocyte culture with KRAS (G12C) inhibitors 9/12 and analogues; assay type: cell-based, mouse; settings: added D0 at 5 uM or D3 at 5 uM or 10 uM, kept till day 7
Procedure: We performed additional studies to examine the observed activities of KRAS (G12C) inhibitors in modulating T cell properties. First, OT-I splenocytes were activated with OVA257-264 peptide (500 nM) for 3 days in the presence of 60 IU/mL IL-2 and cultured for another 7 days. Inhibitor 9 (i9) or inhibitor 12 (i12) was added on Day0 (D0) upon activation at 5 uM and the concentration was kept till day 7 or added on Day3 (D3) after activation at 5 uM or 10 uM and the concentration was kept till day 7 for analysis.
Other than inhibitors 9 and 12, we also tested activities of two analogues of these KRAS (G12C) inhibitors. The analogues, Z7 and Z6, are derived from Inhibitor 9 and Inhibitor 12, respectively. They have an alkynyl group for click reaction which is used for ABPP analysis to find the targets of the inhibitors (FIG. 18A). In the studies, OT-I splenocytes were activated with OVA257-264 peptide (500 nM) for 3 days in the presence of 60 IU/mL IL-2 and cultured for another 7 days. 5 uM […], i9, z6 or z7 were added on Day0 (DO) upon activation.
As noted above, Inhibitor 9 and Inhibitor 12 have a cysteine-reactive group ([…] and acrylamide) that allows covalent binding of i9 and i12 to a cysteine residue in proteins. We further tested two analogue compounds, ZT-1 and ZT-2, that are not capable of forming the covalent binding. […] Cell number was recorded on day 5 and day 7. […]

HA-28z CAR T cells = experiment: HA-28z (GD2) CAR T cell expansion with sugars; settings: 50 mM; CAR T cells day 14
Procedure: Human PBMCs were activated with Human T-Expander CD3/cd38 Dynabeads beads at 1:1 ratio for 24 h in T cells medium and then transduced with retroviral vector encoding the disialoganglioside (GD2)-specific14g2a scFv, CD3ζ and CD28 signaling domains (HA-28z). On day 5 after transfection, CD8^+ CAR T cells or CD4^+ CAR T cells were sorted for in vitro expansion with 150 IU/mL TL-2 in the presence or absence of sugars (FIG. 7A).
T cell exhaustion has been increasingly incriminated to cause Chimeric antigen receptor (CAR)-T cell dysfunction, which has raised the prospect that maintaining CAR T cells stemness could improve in vivo response. For example, CAR T cells incorporating the disialoganglioside (GD2)-specific 14g2a scFv, CD3ζ and CD28 signaling domains (GD2-28z) develop profound features of exhaustion including reduced expansion in culture, increased expression of inhibitory receptors during in vitro culture before adoptive transfer, as a result of receptor clustering and tonic signaling caused by scFv self-interactions via an antigen-independent way (see, e.g., Weber et al., Science 372(6537):eaba1786, 2021; and Long et al., Nat. Med. 21(6):581-90, 2015). Here, we constructed HA-28z CAR T cells (FIG. 7A) and cultured the sorted CD8^+ or CD4^+ CAR T cells with sugars (N-acetylglucosamine, GlcNAc 60 mM or N-Acetylneuraminic acid, Neu5Ac 50 mM) for 14 days.

B16-OVA tumors [1] = experiment: Adoptive transfer of expanded OVA-specific TILs, tumor control; settings: TILs from B16-OVA tumors expanded in the presence of the sugar; tumor size day 16
Procedure: To test the effect of sugars during in vitro expansion of tumor-infiltrating T cells, tumors were mechanically dissociated into single cell suspension and TSA-reactive CD8+ tumor-infiltrating T cells were isolated from MC38 or B16-OVA tumors by FucoID (FIG. 6A) or H-2Kb-[…] tetramer staining, respectively, and then expanded using a rapid expansion protocol in the presence of allogenic (BALB/cByJ) splenocytes as feeder cells (feeder cell: T cell=100:1), together with 0.5 ng/mL anti-CD3 and 1500 IU/mL IL-2. Sugars were added at the beginning or during the expansion of the TILs, and kept till the end of expansion. On expansion day 9, phenotypes of the expanded T cells were assessed, and the cells were used for adoptive transfer (FIG. 6E). For adoptive transfer, 0.5 million cells (B16-OVA or MC38) were inoculated subcutaneously on each mouse on day 0, Listeria monocytogenes-OVA (LM-OVA) infection 0.5 million CFU/mice on day 1, and blood analysis was recorded on day 7.

B16-OVA tumors [2] = experiment: Adoptive transfer of inhibitor 9-expanded OT-I cells into B16-OVA tumor mice; assay type: in vivo, mouse; settings: OT-I cells in vitro expanded with the inhibitor; anti-PD-1 day 14 and day 21
Procedure: In further studies, 6-7-week-old female C57BL/6J mice were subcutaneously implanted with 6×10^5 B16-OVA cells (day −6). Five days (day −1) after the inoculation of B16-OVA cells, the mice were irradiated with a dose of 5 Gy for lymphodepletion. […] Anti-PD-1 antibody infusions were performed on day 14 and day 21 after the adoptive transfer of OT-I cells with a dose of 100 ug/mouse by IV injection.

C=CC(=O)N1CCN(C(=O)CNc2cc(I)c(Cl)cc2O)CC1 [K-Ras(G12C) inhibitor 12]
ratio of progenitor exhausted T cells (Tim-3-TCF-1l) (OT-I splenocytes): significantly increased

CC(=O)N[C@H]1[C@H]([C@H](O)[C@H](O)CO)OC(O)(C(=O)O)C[C@@H]1O (stereo partly drawn) [Neu5Ac, N-acetylneuraminic acid]
inhibitory receptors (e.g. PD-1, Tim-3) expression (HA-28z CAR T cells): decrease
progenitor exhausted T cells (Tim-3-TCF-1^+) (HA-28z CAR T cells): increase

OC[C@H]1O[C@@](CO)(O[C@H]2O[C@H](CO)[C@@H](O)[C@H](O)[C@H]2O)[C@@H](O)[C@@H]1O [Sucrose, sucrose]
tumor control by adoptively transferred OVA-specific TILs (B16-OVA tumors [1]): higher activities in tumor control

K-Ras(G12C) Inhibitor 9
tumor control and response to PD-1 blockade (B16-OVA tumors [2]): improved tumor control and enhanced response to PD-1 blockade
ratio of progenitor exhausted T cells (Tim-3-TCF-1l) (OT-I splenocytes): significantly increased
